The supplement of paper PMC11876631
± gives the standard deviation of the averaged measurements. Laboratory Escherichia coli strains with one amino-acid change in an essential protein, pooled on minimal glucose agar with carbenicillin or gentamicin at twice the control MIC (plus kanamycin and chloramphenicol for the plasmids), 48 h. Fold change of barcode share against drug-free plates; higher = less susceptible. Active = above 20 in both replicates (the paper's putatively resistant). '<' = one read or none on drug, '>' = one read or none on a drug-free plate. Shares are relative, so most strains fall below 1 when a few take over. Listed are strains with at least 15 reads on both drug-free plates, and hits; most hits rest on fewer reference reads. Replicate rank correlation about 0.5. Edits are read from barcodes.

B1: hemA V188P (protein)
chain: MTLLALGINHKTAPVSLRERVSFSPDKLDQALDSLLAQPMVQGGVVLSTCNRTELYLSVEEQDNLQEALIRWLCDYHNLNEEDLRKSLYWHQDNDAVSHLMRVASGLDSLVLGEPQILGQVKKAFADSQKGHMKASELERMFQKSFSVAKRVRTETDIGASAVSVAFAACTLARQIFESLSTVTVLLPGAGETIELVARHLREHKVQKMIIANRTRERAQILADEVGAEVIALSDIDERLREADIIISSTASPLPIIGKGMVERALKSRRNQPMLLVDIAVPRDVEPEVGKLANAYLYSVDDLQSIISHNLAQRKAAAVEAETIVAQETSEFMAWLRAQSASETIREYRSQAEQVRDELTAKALAALEQGGDAQAIMQDLAWKLTNRLIHAPTKSLQQAARDGDNERLNILRDSLGLE
B2: hemA L187A (protein)
chain: MTLLALGINHKTAPVSLRERVSFSPDKLDQALDSLLAQPMVQGGVVLSTCNRTELYLSVEEQDNLQEALIRWLCDYHNLNEEDLRKSLYWHQDNDAVSHLMRVASGLDSLVLGEPQILGQVKKAFADSQKGHMKASELERMFQKSFSVAKRVRTETDIGASAVSVAFAACTLARQIFESLSTVTVLAVGAGETIELVARHLREHKVQKMIIANRTRERAQILADEVGAEVIALSDIDERLREADIIISSTASPLPIIGKGMVERALKSRRNQPMLLVDIAVPRDVEPEVGKLANAYLYSVDDLQSIISHNLAQRKAAAVEAETIVAQETSEFMAWLRAQSASETIREYRSQAEQVRDELTAKALAALEQGGDAQAIMQDLAWKLTNRLIHAPTKSLQQAARDGDNERLNILRDSLGLE
B3: argG M261A (protein)
chain: MTTILKHLPVGQRIGIAFSGGLDTSAALLWMRQKGAVPYAYTANLGQPDEEDYDAIPRRAMEYGAENARLIDCRKQLVAEGIAAIQCGAFHNTTGGLTYFNTTPLGRAVTGTMLVAAMKEDGVNIWGDGSTYKGNDIERFYRYGLLTNAELQIYKPWLDTDFIDELGGRHEMSEFMIACGFDYKMSVEKAYSTDSNMLGATHEAKDLEYLNSSVKIVNPIMGVKFWDESVKIPAEEVTVRFEQGHPVALNGKTFSDDVEMALEANRIGGRHGLGMSDQIENRIIEAKSRGIYEAPGMALLHIAYERLLTGIHNEDTIEQYHAHGRQLGRLLYQGRWFDSQALMLRDSLQRWVASQITGEVTLELRRGNDYSILNTVSENLTYKPERLTMEKGDSVFSPDDRIGQLTMRNLDITDTREKLFGYAKTGLLSSSAASGVPQVENLENKGQ
B4: hemA L187W (protein)
chain: MTLLALGINHKTAPVSLRERVSFSPDKLDQALDSLLAQPMVQGGVVLSTCNRTELYLSVEEQDNLQEALIRWLCDYHNLNEEDLRKSLYWHQDNDAVSHLMRVASGLDSLVLGEPQILGQVKKAFADSQKGHMKASELERMFQKSFSVAKRVRTETDIGASAVSVAFAACTLARQIFESLSTVTVLWVGAGETIELVARHLREHKVQKMIIANRTRERAQILADEVGAEVIALSDIDERLREADIIISSTASPLPIIGKGMVERALKSRRNQPMLLVDIAVPRDVEPEVGKLANAYLYSVDDLQSIISHNLAQRKAAAVEAETIVAQETSEFMAWLRAQSASETIREYRSQAEQVRDELTAKALAALEQGGDAQAIMQDLAWKLTNRLIHAPTKSLQQAARDGDNERLNILRDSLGLE
B5: argG M261W (protein)
chain: MTTILKHLPVGQRIGIAFSGGLDTSAALLWMRQKGAVPYAYTANLGQPDEEDYDAIPRRAMEYGAENARLIDCRKQLVAEGIAAIQCGAFHNTTGGLTYFNTTPLGRAVTGTMLVAAMKEDGVNIWGDGSTYKGNDIERFYRYGLLTNAELQIYKPWLDTDFIDELGGRHEMSEFMIACGFDYKMSVEKAYSTDSNMLGATHEAKDLEYLNSSVKIVNPIMGVKFWDESVKIPAEEVTVRFEQGHPVALNGKTFSDDVEMWLEANRIGGRHGLGMSDQIENRIIEAKSRGIYEAPGMALLHIAYERLLTGIHNEDTIEQYHAHGRQLGRLLYQGRWFDSQALMLRDSLQRWVASQITGEVTLELRRGNDYSILNTVSENLTYKPERLTMEKGDSVFSPDDRIGQLTMRNLDITDTREKLFGYAKTGLLSSSAASGVPQVENLENKGQ
B6: hemA L276A (protein)
chain: MTLLALGINHKTAPVSLRERVSFSPDKLDQALDSLLAQPMVQGGVVLSTCNRTELYLSVEEQDNLQEALIRWLCDYHNLNEEDLRKSLYWHQDNDAVSHLMRVASGLDSLVLGEPQILGQVKKAFADSQKGHMKASELERMFQKSFSVAKRVRTETDIGASAVSVAFAACTLARQIFESLSTVTVLLVGAGETIELVARHLREHKVQKMIIANRTRERAQILADEVGAEVIALSDIDERLREADIIISSTASPLPIIGKGMVERALKSRRNQPMLAVDIAVPRDVEPEVGKLANAYLYSVDDLQSIISHNLAQRKAAAVEAETIVAQETSEFMAWLRAQSASETIREYRSQAEQVRDELTAKALAALEQGGDAQAIMQDLAWKLTNRLIHAPTKSLQQAARDGDNERLNILRDSLGLE
B7: hemA L276W (protein)
chain: MTLLALGINHKTAPVSLRERVSFSPDKLDQALDSLLAQPMVQGGVVLSTCNRTELYLSVEEQDNLQEALIRWLCDYHNLNEEDLRKSLYWHQDNDAVSHLMRVASGLDSLVLGEPQILGQVKKAFADSQKGHMKASELERMFQKSFSVAKRVRTETDIGASAVSVAFAACTLARQIFESLSTVTVLLVGAGETIELVARHLREHKVQKMIIANRTRERAQILADEVGAEVIALSDIDERLREADIIISSTASPLPIIGKGMVERALKSRRNQPMLWVDIAVPRDVEPEVGKLANAYLYSVDDLQSIISHNLAQRKAAAVEAETIVAQETSEFMAWLRAQSASETIREYRSQAEQVRDELTAKALAALEQGGDAQAIMQDLAWKLTNRLIHAPTKSLQQAARDGDNERLNILRDSLGLE
B8: argG M261Q (protein)
chain: MTTILKHLPVGQRIGIAFSGGLDTSAALLWMRQKGAVPYAYTANLGQPDEEDYDAIPRRAMEYGAENARLIDCRKQLVAEGIAAIQCGAFHNTTGGLTYFNTTPLGRAVTGTMLVAAMKEDGVNIWGDGSTYKGNDIERFYRYGLLTNAELQIYKPWLDTDFIDELGGRHEMSEFMIACGFDYKMSVEKAYSTDSNMLGATHEAKDLEYLNSSVKIVNPIMGVKFWDESVKIPAEEVTVRFEQGHPVALNGKTFSDDVEMQLEANRIGGRHGLGMSDQIENRIIEAKSRGIYEAPGMALLHIAYERLLTGIHNEDTIEQYHAHGRQLGRLLYQGRWFDSQALMLRDSLQRWVASQITGEVTLELRRGNDYSILNTVSENLTYKPERLTMEKGDSVFSPDDRIGQLTMRNLDITDTREKLFGYAKTGLLSSSAASGVPQVENLENKGQ
B9: hemB F121A (protein)
chain: MTDLIQRPRRLRKSPALRAMFEETTLSLNDLVLPIFVEEEIDDYKAVEAMPGVMRIPEKHLAREIERIANAGIRSVMTFGISHHTDETGSDAWREDGLVARMSRICKQTVPEMIVMSDTCACEYTSHGHCGVLCEHGVDNDATLENLGKQAVVAAAAGADFIAPSAAMDGQVQAIRQALDAAGFKDTAIMSYSTKFASSFYGPFREAAGSALKGDRKSYQMNPMNRREAIRESLLDEAQGADCLMVKPAGAYLDIVRELRERTELPIGAYQVSGEYAMIKFAALAGAIDEEKVVLESLGSIKRAGADLIFSYFALDLAEKKILR
B10: argG M261P (protein)
chain: MTTILKHLPVGQRIGIAFSGGLDTSAALLWMRQKGAVPYAYTANLGQPDEEDYDAIPRRAMEYGAENARLIDCRKQLVAEGIAAIQCGAFHNTTGGLTYFNTTPLGRAVTGTMLVAAMKEDGVNIWGDGSTYKGNDIERFYRYGLLTNAELQIYKPWLDTDFIDELGGRHEMSEFMIACGFDYKMSVEKAYSTDSNMLGATHEAKDLEYLNSSVKIVNPIMGVKFWDESVKIPAEEVTVRFEQGHPVALNGKTFSDDVEMPLEANRIGGRHGLGMSDQIENRIIEAKSRGIYEAPGMALLHIAYERLLTGIHNEDTIEQYHAHGRQLGRLLYQGRWFDSQALMLRDSLQRWVASQITGEVTLELRRGNDYSILNTVSENLTYKPERLTMEKGDSVFSPDDRIGQLTMRNLDITDTREKLFGYAKTGLLSSSAASGVPQVENLENKGQ
B11: hemB F121W (protein)
chain: MTDLIQRPRRLRKSPALRAMFEETTLSLNDLVLPIFVEEEIDDYKAVEAMPGVMRIPEKHLAREIERIANAGIRSVMTFGISHHTDETGSDAWREDGLVARMSRICKQTVPEMIVMSDTCWCEYTSHGHCGVLCEHGVDNDATLENLGKQAVVAAAAGADFIAPSAAMDGQVQAIRQALDAAGFKDTAIMSYSTKFASSFYGPFREAAGSALKGDRKSYQMNPMNRREAIRESLLDEAQGADCLMVKPAGAYLDIVRELRERTELPIGAYQVSGEYAMIKFAALAGAIDEEKVVLESLGSIKRAGADLIFSYFALDLAEKKILR
B12: hemB F121Q (protein)
chain: MTDLIQRPRRLRKSPALRAMFEETTLSLNDLVLPIFVEEEIDDYKAVEAMPGVMRIPEKHLAREIERIANAGIRSVMTFGISHHTDETGSDAWREDGLVARMSRICKQTVPEMIVMSDTCQCEYTSHGHCGVLCEHGVDNDATLENLGKQAVVAAAAGADFIAPSAAMDGQVQAIRQALDAAGFKDTAIMSYSTKFASSFYGPFREAAGSALKGDRKSYQMNPMNRREAIRESLLDEAQGADCLMVKPAGAYLDIVRELRERTELPIGAYQVSGEYAMIKFAALAGAIDEEKVVLESLGSIKRAGADLIFSYFALDLAEKKILR

Biological target: Escherichia coli (laboratory strain)
Assay: barcode share on antibiotic plates over drug-free plates; higher = less susceptible
Details: antibiotic: carbenicillin; 2× MIC (3.1 µg/mL)
Experimental: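 A pool of E. coli strains, each edited to carry one amino-acid change in an essential protein, was grown for 48 h on minimal glucose agar with or without antibiotic; strain barcodes were sequenced; mean of two replicates.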

**Q.** With B1 as the protein, how does the “fold change of barcode share” value read?
**A.** The value was 0.386 ± 0.07.

**Q.** With B2 as the protein, how does the “fold change of barcode share” value read?
**A.** The value was 0.287 ± 0.02.

**Q.** Which “fold change of barcode share” value does the source give for B3 here?
**A.** The value was 0.143 ± 0.022.

**Q.** Which “fold change of barcode share” value does the source give for B4 here?
**A.** The value was 0.45 ± 0.012.

**Q.** For B5, which “fold change of barcode share” value is on record?
**A.** The value was 0.268 ± 0.25.

**Q.** How did the “fold change of barcode share” value turn out when B6 was run?
**A.** The value was 0.304 ± 0.041.

**Q.** How did the “fold change of barcode share” value turn out when B7 was run?
**A.** The value was 0.405 ± 0.38.

**Q.** B8 was tested. Which “fold change of barcode share” value did it give?
**A.** The value was 0.24 ± 0.17.

**Q.** B9 was tested. Which “fold change of barcode share” value did it give?
**A.** The value was 0.315 ± 0.13.

**Q.** With B10 as the protein, how does the “fold change of barcode share” value read?
**A.** The value was 0.16 ± 0.17.

**Q.** For B11, which “fold change of barcode share” value is on record?
**A.** The value was 0.533 ± 0.062.

**Q.** B12 was tested. Which “fold change of barcode share” value did it give?
**A.** The value was 0.313 ± 0.063.

Same assay, conditions: antibiotic: gentamicin; 2× MIC (MIC 0.45 µg/mL)

**Q.** With B1 as the protein, how does the “fold change of barcode share” value read?
**A.** The value was 0.0519 ± 0.017.

**Q.** How did the “fold change of barcode share” value turn out when B2 was run?
**A.** The value was less than 0.00732.

**Q.** With B3 as the protein, how does the “fold change of barcode share” value read?
**A.** The value was less than 0.0105.

**Q.** B4 was tested. Which “fold change of barcode share” value did it give?
**A.** The value was 0.0609 ± 0.081.

**Q.** How did the “fold change of barcode share” value turn out when B5 was run?
**A.** Its value is less than 0.00438.

**Q.** How did the “fold change of barcode share” value turn out when B6 was run?
**A.** The value was 0.0126 ± 0.0028.

**Q.** How did the “fold change of barcode share” value turn out when B7 was run?
**A.** Its value is less than 0.00813.

**Q.** With B8 as the protein, how does the “fold change of barcode share” value read?
**A.** Its value is 0.011 ± 0.0083.

**Q.** With B9 as the protein, how does the “fold change of barcode share” value read?
**A.** Its value is 0.0125 ± 0.0033.

**Q.** With B10 as the protein, how does the “fold change of barcode share” value read?
**A.** The value was less than 0.0144.

**Q.** With B11 as the protein, how does the “fold change of barcode share” value read?
**A.** Its value is 0.233 ± 0.33.

**Q.** Which “fold change of barcode share” value does the source give for B12 here?
**A.** The value was 0.00608 ± 0.0027.
